The record followed here is PubChem BioAssay AID1240 (Sanford-Burnham Center for Chemical Genomics, 2008).

SMILES strings stand for the structures. Among all 50,000 compounds or so, about 800 (1.6%) showed an effect of 50% or more. The list shows a part of the results.

This assay deals with Bcl-2-like protein 10 (Homo sapiens) (UniProt Q9HD36). Briefly: Phenotype converters, Bcl-B/TR3 peptide binding displacement, primary biochemical FP (AID 1240).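 Note: 0% = Bcl-B with tracer peptide and DMSO and 100% = tracer peptide lacking Bcl-B.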 To be noted: GST-Bcl-B / FITC-TR3 peptide fluorescence polarization; stronger effect = higher value; compound at 3.75 mg/L.
Chain of UniProt Q9HD36 (Q9HD36 whole entry, looked up): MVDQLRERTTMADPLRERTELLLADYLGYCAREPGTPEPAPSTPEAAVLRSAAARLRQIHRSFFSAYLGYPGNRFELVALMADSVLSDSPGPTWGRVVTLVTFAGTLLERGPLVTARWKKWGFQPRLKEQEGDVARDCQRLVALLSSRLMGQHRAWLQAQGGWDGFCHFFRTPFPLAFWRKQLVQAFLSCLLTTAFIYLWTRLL
As to `CN(C)c1ccc(/C=N/NC(=O)CNC(=O)c2ccncc2)cc1`, the displacement was 7.3%.
Regarding `COC(=O)c1c(N)sc(C)c1-c1ccc(C)c(C)c1`, the displacement is -6.9%.
For `O=C(O)C(NC(=O)c1ccccc1)=C1CCCCC1`, the displacement turned out to be 3.2%.
As for `CNC(=O)c1c(NC(C)=O)sc2c1CCCCC2`, the displacement was -14%.
In the case of `CCOC(=O)C(CCCCCOc1ccccc1F)C(=O)OCC` it was 8.4%; in that of `N/C(=N\OC(=O)c1ccc(Cl)cc1Cl)c1cccnc1`, -2.9%; in that of `COc1cc(/C=C2\N=C(c3ccc(F)cc3)OC2=O)ccc1OC(=O)c1ccccc1Cl`, 12.2%.
To `CCc1cc(=O)oc2cc(OCc3ccc(Br)cc3)ccc12` belongs -3.9%; to `O=C(CC(c1ccccc1)c1ccccc1)Nc1ccc2c(c1)OCO2`, -4.4%.
Take `COc1cccc2cc(C(C)=O)c(=O)oc12`: the displacement stood at 14.4%.
On to `Cn1ccc(C(=O)OCC(=O)c2ccccc2)n1`, for which the displacement was determined as 13.8%.
For `COc1ccc(NC(=O)c2ccc(OC)c(OC)c2)cc1Cl`, the displacement came out at 20.4%.
In the case of `Cc1ccc(-c2c(C#N)c(N)nc3c2CCCC3)s1` it was -0.6%; in that of `CCOC(=O)c1ccc2c3c(onc13)-c1ccccc1C2=O`, 120%.
In the case of `N#C/C(=C\c1cccs1)c1nc2ccccc2s1` it was -12.5%; in that of `COC(=O)C1=C(C)NC2=C(C(=O)CCC2)C1c1ccc(OCc2ccc(Cl)cc2)c([N+](=O)[O-])c1` (configuration not stated), -0.1%.
Regarding `Cc1cc(Cl)ccc1OCC(=O)Nc1ccc(OC(F)(F)F)cc1`, the displacement was found to be 2.8%.
For the compound `O=C(/C=C/c1cccc([N+](=O)[O-])c1)c1ccc2c(c1)OCCO2`, the displacement amounted to 11.9%.
In the case of `COc1cc(C2NC(=O)NC(C)=C2C(=O)OCc2ccc3c(c2)OCO3)cc(Br)c1O` (configuration not stated) it was 14.1%; in that of `CC(=O)Nc1cc(C(F)(F)F)cc(C(F)(F)F)c1`, -7.4%; in that of `COc1cc(C(=S)N2CCOCC2)ccc1OC(=O)c1ccccc1`, 11.2%.
As to `CC1CCc2c(sc(NC(=O)c3cncc(Br)c3)c2C(N)=O)C1` (configuration not stated), the displacement turned out to be 18.5%.
In the case of `O=C(Nc1ccccc1)Nc1nc(C(c2ccccc2)c2ccccc2)cs1` it was 0.5%.
In the case of `Nc1nonc1C(=O)OCc1ccccc1` it was 10.5%; in that of `O=C(Nc1cc(C(F)(F)F)ccc1Cl)c1ccc(Cl)cc1Cl`, -1.2%; in that of `CCOc1cccc2c1N(C(=O)c1ccccc1)C(C)(C)C(=S)C2=C1SC(C(=O)OC)=C(C(=O)OC)S1`, 0.3%.
To `CC(=O)c1ccc(NC2=C(Cl)C(=O)c3ccccc3C2=O)cc1` belongs 4.5%.
Consider `COc1ccccc1C(=O)NN1C(=O)/C(=C/c2ccc([N+](=O)[O-])cc2)SC1=S`, for which the displacement was -2%.
In the case of `O=C(CC12CC3CC(CC(C3)C1)C2)Nc1nccs1` it was 3.9%; in that of `Cn1c2ccccc2c2cc(C3Nc4ccccc4C(=O)N3Cc3ccccc3)ccc21` (configuration not stated), 7%; in that of `Cc1ccc(C(=O)N/C(=C\c2ccco2)c2nc(=S)[nH][nH]2)cc1`, 2.3%.
In the case of `Cc1ccc(NC(=O)CN2CCN(CCN=CC3=C(O)CC(C)(C)CC3=O)CC2)cc1` it was -9.3%; in that of `O=C(Nc1cccc2ccccc12)C1(c2ccccc2)CC1(Cl)Cl` (configuration not stated), -1.2%.
To `O=C(Nc1cc(Cl)cc(Cl)c1)c1cc2ccccc2o1` belongs 0.8%.
For the compound `Cc1ccc(C(C)(C)C)cc1C(=O)c1ccc([N+](=O)[O-])cc1`, the displacement stood at 11.4%.
In the case of `O=c1[nH]c(=O)n(-c2ccccc2Cl)c(O)c1C=C1C=CC=N1`, the displacement is 11.5%.
`COc1ccc(C(=O)N2CCNCC2)cc1OC`: the displacement is -13.1%.
In the case of `O=S(=O)(Nc1cccc(I)c1)c1ccccc1` it was -2.7%; in that of `CCc1cccc(C)c1NC(=O)C1CC=CCC1C(=O)O` (configuration not stated), -8.5%.
On to `Cc1c(-c2nc(-c3cccnc3)no2)cccc1[N+](=O)[O-]`, for which the displacement turned out to be 2.4%.
In the case of `COc1ccc(C2C(C(C)=O)=C(O)C(=O)N2c2nc3ccccc3s2)cc1` (configuration not stated) it was -1%.
To `O=Nc1c(O)c2ccccc2c2ccc([N+](=O)[O-])cc12` belongs 1.6%; to `Cc1ccc(-n2nc3ccc(NC(=O)COc4ccccc4[N+](=O)[O-])cc3n2)cc1Cl`, 4.1%.
To `CCOc1ccc(NC(=O)c2ccccc2C(F)(F)F)cc1` belongs 5.2%; to `Cc1ccc(OCCOCCOc2ccc(Br)cc2/C=C2/SC(=S)NC2=O)cc1`, -15.3%; to `O=[N+]([O-])c1cccc(/C=N\N2CCN(C(c3ccccc3)c3ccccc3)CC2)c1`, 2.8%.
In the case of `CC1=C(C(=O)OCCc2ccccc2)C(c2ccc([N+](=O)[O-])cc2)C2=C(CC(C)(C)CC2=O)N1` (configuration not stated), the displacement was -4.4%.
In the case of `C#CCOC(=O)/C=C/c1cccc([N+](=O)[O-])c1` it was -7.5%.
To `C/C(CCc1ccc2c(c1)OCO2)=N\N=C1/NC(=O)CC(C(=O)NCCc2ccc(S(N)(=O)=O)cc2)S1` (configuration not stated) belongs 2.4%.
To `CCCCN(CCCC)CCCCSc1ccc(O)cc1` belongs -39%; to `Cc1ccc(OCCCCCSC#N)cc1C`, 5.8%.
Regarding `COc1ccc(/C=N/NC(=O)c2nonc2C)cc1`, the displacement came out at 3.1%.
In the case of `COC1CCCCC1N1CCN(C(=O)c2ccccc2)CC1` (configuration not stated) it was -3.5%.
In the case of `COc1ccc(CC(=O)c2ccc(OC)c(OC)c2)cc1OC` it was 8.8%.
Regarding `Cc1cc(Cl)ccc1OCC(O)CN1CCN(CCO)CC1` (configuration not stated), the displacement was -0.3%.
Regarding `CCC(=O)Nc1ccc(O)c(-c2nc3cc(C)c(C)cc3o2)c1`, the displacement was -7%.
To `C/C(=N\Nc1nc(C)cc(-c2ccccc2)n1)c1cccc(N)c1` belongs -15.5%.
To `O=c1/c(=C/c2cc(Cl)ccc2OCc2ccccc2Cl)sc2nc3ccccc3n12` belongs -1.9%; to `O=C(NCC(=O)c1ccccc1)SCc1ccccn1`, -12.9%.
Consider `COc1ccc(C2SCCN2C(=O)c2cc3ccccc3oc2=O)cc1` (configuration not stated), for which the displacement is -0.4%.
In the case of `Cc1ccc2cc(C3=C/C(=C/c4ccccn4)C(=O)O3)ccc2c1`, the displacement was 12.2%.
To `O=C(C[n+]1cc(Br)cc(Br)c1)c1ccc(Cl)cc1` belongs 4.2%; to `O=C(NCc1cccnc1)c1ccc(C#CC2(O)CCCCC2)cc1`, -9.5%; to `O=C1OC(c2ccccc2)=C/C1=C\c1c(Cl)cccc1Cl`, -5.8%.
As to `COc1ccc(NC(=O)CC2CCC2)cc1`, the displacement was 17%.
`COc1ccccc1N(CC(=O)N/N=C\c1c(O)ccc2ccccc12)S(=O)(=O)c1ccccc1`: the displacement is -22.8%.
To `COc1cc(-c2noc(-c3ccccc3C)n2)cc(OC)c1OC` belongs 10%; to `CCOc1cc(C(=O)NC2CCSC2=O)cc(OCC)c1OCC` (configuration not stated), 4.4%.
To `COc1ccc2c(c1)OC(O)(C(F)(F)C(F)F)CC2=O` (configuration not stated) belongs -1.7%; to `Cc1c(C(=O)OC(C)C)sc(NC(=O)c2cnccn2)c1C(=O)OC(C)C`, -5.6%; to `CN(C)c1ccc(NC(=O)COc2ccccc2)cc1`, 3.2%.
With `O=C(c1cccc(Nc2nc(-c3ccccc3)c3cc(Br)ccc3n2)c1)N1CCOCC1`, the displacement worked out at 11.1%.
To `O=C(CCC(=O)N1CCN(Cc2ccccc2)CC1)N1CCOCC1` belongs 0.1%.
In the case of `Cc1ccc(Cl)cc1NC(=O)C(C(C)C)N1C(=O)c2ccccc2C1=O` (configuration not stated) it was -5.7%; in that of `CCOC(=O)C1=NNC(C(=O)c2ccccc2)C1c1ccc(Br)cc1` (configuration not stated), -3.2%; in that of `Cc1cccc(NC(=O)c2cc([N+](=O)[O-])ccc2Cl)c1C`, 0%.
For `CCOc1ccccc1C1Nc2ccccc2NC2=C1C(=O)CC(c1ccc3c(c1)OCO3)C2` (configuration not stated), the displacement stood at 8.2%.
In the case of `CC(=O)C1=C(C)NC(=O)NC1c1cc(Br)ccc1O` (configuration not stated) it was -8.1%; in that of `COc1ccc(C(=O)CC(Nc2ccc(Cl)cc2)c2ccccc2)cc1` (configuration not stated), -6.6%.
To `Cc1ccc(NC(=O)COc2ccc(Cl)cc2C)c([N+](=O)[O-])c1` belongs 17.1%; to `CCOC(=O)/C=C(\C)N1N=C(c2ccccc2)CC1c1ccccc1[N+](=O)[O-]` (configuration not stated), 12%.
Regarding `Cc1ccc(/C=C2\CN(C)C/C(=C\c3ccc(C)cc3)C2=O)cc1`, the displacement is -4.1%.
`COc1ccc(OC)c(C=Nc2ccc(I)cc2)c1`: the displacement came to 3.6%.
With `CC(=O)C1=C(O)C(=O)N(CCN(C)C)C1c1ccc(Br)cc1` (configuration not stated), the displacement was -3.6%.
In the case of `CC1(C)CC(=O)C2=C(C1)Nc1ccccc1N(C(=O)c1ccc(Cl)cc1)C2c1ccco1` (configuration not stated) it was 0.1%.
`Cc1ccccc1OCC(=O)NNC(=O)C(F)(F)F`: the displacement came to 8.6%.
Regarding `Cc1cccc(OCC(=O)N2CCc3ccccc3C2)c1`, the displacement was determined as 6.8%.
In the case of `COc1ccc(CCNC(=O)Nc2ccc(Cl)c(Cl)c2)cc1` it was -6.1%; in that of `CC(=O)c1ccc(NC(=O)Cc2ccc(Br)cc2)cc1`, -2.5%; in that of `COc1ccc(C(=O)Nc2ccccc2C(=O)NCCC(=O)NCc2ccco2)cc1`, 11.4%.
With `COc1ccc(CCN=C(Nc2ccccc2)SC2CC(=O)N(c3ccc(F)cc3)C2=O)cc1` (configuration not stated), the displacement was -7%.
With `CC1=C(C(=O)Nc2cccc(C)c2)C(c2ccc3c4c(cccc24)CC3)NC(=S)N1` (configuration not stated), the displacement is 8.1%.
In the case of `Cc1ccc(OCC(=O)N/N=C\c2ccc(-c3ccc([N+](=O)[O-])cc3)o2)cc1` it was 116%; in that of `Nc1cccc(NC(=O)CCC(=O)O)n1`, 4.3%.
In the case of `COC(=O)C1C(O)=C(C(C)=NC(C)C)C(=O)CC1(C)C` (configuration not stated) it was -15.9%; in that of `COC(=O)c1ccc(-c2ccc(/C=C3/SC(NC(C)=O)=NC3=O)o2)cc1`, 10.7%.
As to `CC(=O)Oc1ccc(C2C(C(=O)OC(C)C)=C(C)NC3=C2C(=O)CC(C)(C)C3)cc1` (configuration not stated), the displacement turned out to be 11.6%.
To `COc1cc(/C=N/NC(=O)c2ccccn2)cc(OC)c1O` belongs -1.2%; to `Cc1cc(C)nc(Sc2ccc3nnc(C(F)(F)F)n3n2)n1`, 8.1%; to `COc1ccc(-n2nc3cc(C)c(NC(=O)c4ccc5c(c4)OCCO5)cc3n2)cc1`, 28.3%.
Consider `Cc1cccc(OCC(=O)Nc2cccc(C(=O)NCC(C)C)c2)c1`, for which the displacement came out at 11.8%.
To `Cc1c(C(N)=O)sc(N)c1C(=O)OC(C)C` belongs -2.1%; to `O=C(NCCCO)C(=O)Nc1cccc(C(F)(F)F)c1`, 3.4%; to `CCc1ccc(NC(=O)C(=O)NCc2ccc3c(c2)OCO3)cc1`, 10.5%.
To `CC1(C)CC(=O)CC(=Nc2ccc(F)cc2)C1` belongs -4.9%; to `Cc1ccccc1OCCOc1ccc(Cl)cc1/C=N/n1cnnc1`, -2.5%.
In the case of `CN(C)c1ccc(-c2nc3cc(NC(=O)c4cccc(Br)c4)ccc3o2)cc1` it was 62.5%; in that of `CC(=O)c1cccc(NC2C=CS(=O)(=O)C2)c1` (configuration not stated), 16.4%; in that of `Cc1cc(Cl)ccc1OCC(=O)Nc1ccc(N2CCOCC2)cc1`, 17.4%.
As for `Cc1cc(NC(=O)c2cc(-c3ccc(C(C)C)cc3)nc3ccccc23)no1`, the displacement worked out at 5.5%.
To `Cc1ccc(S(=O)(=O)N(CC(=O)Nc2cccc(C)c2)c2cccc(Cl)c2C)cc1` belongs -7.7%; to `Cc1nonc1N=Cc1cc(I)cc(I)c1O`, -5.7%.
